Data reported in the supplement of paper PMC10338343.
± gives the standard deviation. Only a part is listed here, and it is no random draw.

These sequences were tested on MIWI (PIWIL1) piRISC loaded with L1MC piRNA (30 nt) (assay: pre-steady-state target cleavage rate (min^-1); MIWI and MILI are mouse PIWI proteins and EfPiwi is from a freshwater sponge; tags in brackets are library labels; higher = faster piRNA-guided slicing of the target). Settings: guide: L1MC piRNA 5'p-UAACUAAAUACUAUGCAAGCUGUAGGUCCU; auxiliary factor: none (no GTSF1).
Method in brief: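 A transcribed, DNA-blocked target RNA library (0.1 nM) and 1 nM active affinity-purified piRISC bearing one synthetic guide were incubated in HEPES–potassium acetate buffer at 33 °C for 0–8 or 0–960 min, either with or without 500 nM GTSF1 partner protein. Uncleaved targets were sequenced, normalised to depth and to weakly complementary targets, and pooled over three trials, with k3 capped at 0.0001 min^-1. The pre-steady-state cleavage rate was derived with a burst-and-steady-state fit.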

Sequence | pre-steady-state target cleavage rate
UCCUGGAUCAGCUUGCAUAGUAUAUUGUUA | 0.0142 ± 0.0066
UCGACCUUCAGCUUGCAUAGUUUUUAGUUA | 0.0302 ± 0.0072
UCGACCUACAGCUUGCAUAGAAUUUACUUA | 0.0173 ± 0.0046
AGGACCUACAGCUUGCAAAGUAUUUAGAUA | 0.0227 ± 0.0052
AGGAGCUACAGCUUGCAUAGUAAUUAGUUA | 0.0361 ± 0.0086
UCCUCCUACAGCUUGCAUAGUAAUUAGUAA | 0.0074 ± 0.0022
UCCUGGAUGUGUUUGCAUAGUAUUUAGUUA | 0.0281 ± 0.0056
UCCACGAUCAGCUUGCAUAGUAUUUUCAAA | 0.00391 ± 0.0024
AGGACCAACAGGUUGCAUAGUAUUUAGUUA | 0.0536 ± 0.0086
UCCUGGAUGACCUUGCAUAGUAUUUACUUA | 0.00707 ± 0.0025
UCCUGGUACUGCUUGCAUAGUAUUUUGUUA | 0.0218 ± 0.0062
UCCACCUUCAGCUAGCAUAGUAUUUAGUUA | 0.0174 ± 0.004
AGGACCUACAGCUUCCAUAGUAUUUAGUUA | 0.00787 ± 0.0039
AGGACGUACAGGUUGCAUAGUAUUUAGUUA | 0.0401 ± 0.0057
UGGACCUACAGCUUGCAAAGUUUUUAGUUA | 0.0182 ± 0.0051
UCCACCUAUAGCUUGCAUAGUAUUUAGUUA | 0.0407 ± 0.0075
